# Measured values taken from publication PMC6212790.
# The list shows a part of the results. At the low end of the ranking, values are background and their order means little.
# Target: T1, GST-Rok-C97-191 (UniProt O34857)
# T1 sequence: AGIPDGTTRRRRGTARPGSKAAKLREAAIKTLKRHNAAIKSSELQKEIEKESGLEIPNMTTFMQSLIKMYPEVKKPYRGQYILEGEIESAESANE
# Assay: protein binding microarray;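 further: rank score from −0.5 (least bound) to 0.5 (best bound)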
# Conditions: Rok is a gene silencer of Bacillus subtilis; high values mean tight binding; most listed sequences are background and not binding sites; double strand, one strand shown
row,Sequence,binding signal [E-score]
1,CCTGTGGC,-0.25
2,AACACCAT,-0.11
3,CGTGTCCA,-0.0989
4,CTCACCTC,-0.104
5,CCTGTGAA,-0.122
6,GATCGCGA,0.0474
7,CCAACAGA,-0.14
8,GCTATTAA,0.106
9,AGTTTTAG,0.28
10,CATAAAAG,0.105
11,ATTTGCGC,0.202
12,GGTGGATA,0.142
13,AGAAACGG,0.0626
14,CAATGGCC,-0.0152
15,GGAAAAGA,-0.0888
16,CTAAAGAG,0.00481
17,GCTCTTCA,-0.136
18,ACTCATTC,0.131
19,GAATCATC,-0.222
20,TCATAACA,0.042
21,ACGACCTC,-0.134
22,TGAACGCA,-0.16
23,CTGCGACA,-0.237
24,CTGCACAA,0.0821
25,ATTGGGAA,-0.00816

row,Sequence,binding signal [E-score]
1,AACATGGT,0.0855
2,CGAACGAG,-0.127
3,ATTCTACC,0.467
4,CCGGGGGC,-0.336
5,CAAGATAG,0.276
6,TCCGCGAA,0.149
7,GCGACAAC,-0.157
8,ACGGAGCA,-0.0761
9,GCCTATCA,-0.11
10,AGGACCGG,-0.171
11,AAGGTACT,0.242
12,AGGGTCGA,-0.214
13,GGACTTAC,0.0851
14,CTCATCAA,-0.0647
15,GCTCACCA,-0.291
16,CGAGCTGC,-0.138
17,AGTGTACG,-0.0734
18,AGATTGAG,0.138
19,ACCGCAGT,-0.0133
20,AATCAGAG,-0.0995
21,ATTTGGTG,0.181
22,ACTGAAAG,-0.103
23,GAGTTTGA,-0.16
24,CGCACCCG,-0.217
25,GTGAACAC,-0.175

row,Sequence,binding signal [E-score]
1,CCGCAGTC,-0.245
2,AAAGGGTT,-0.0515
3,CGTAACGC,-0.183
4,CGGTTTTC,-0.165
5,ATCGCACG,-0.0954
6,TGATTTAA,0.0609
7,CAAAACCC,-0.187
8,ATAGAGTC,-0.12
9,GGCCTACA,-0.0664
10,GGTTGGAA,-0.0495
11,CGCGCATC,-0.196
12,CATATCCG,0.176
13,AGACGGCG,-0.219
14,CACTATGC,0.159
15,TGCGCCAA,-0.134
16,AGCCCACG,-0.147
17,CTTGTGCA,0.052
18,AATGATCA,0.156
19,CCCGGCGC,-0.345
20,GTGCAAGA,0.0658
21,GTCTAAAC,0.00715
22,AATTGTAA,0.256
23,AGTACCAT,0.288
24,ATCTTATG,0.18
25,ACCACAAC,0.109

row,Sequence,binding signal [E-score]
1,ACTACAGT,0.181
2,CTCTATTA,0.246
3,GACATTGA,-0.00156
4,ATACTCAT,-0.00471
5,CTCCCTGC,-0.203
6,GAAACTAC,0.46
7,CTTCGCGC,0.074
8,CGTTGAAC,-0.0772
9,CCCTTCTA,-0.0641
10,CAGCACCC,-0.108
11,GCTGTTTA,0.0646
12,CCGTTCAA,-0.00922
13,GATTGTGC,0.0266
14,TACCGTCA,0.139
15,AGGCTGCC,-0.323
16,AATTCTAC,0.421
17,CCATAAGC,-0.139
18,CAACCACG,-0.0255
19,CCTATGTA,0.302
20,AGAACCGC,0.0835
21,ACCAACGC,-0.181
22,GACCCTCC,-0.311
23,CACGTACC,-0.173
24,CACCTGCG,-0.0845
25,AGTGAACT,0.0759

row,Sequence,binding signal [E-score]
1,GCGAGCCC,-0.0925
2,GCGTGCGA,-0.227
3,GGCCTTTA,-0.116
4,ACGCTAAG,0.0377
5,AAGCTTGA,-0.261
6,GCGAGTTA,0.0475
7,CCAAGAAA,0.168
8,ATACCTGA,0.0452
9,CTAGACTA,0.0281
10,AAACCGAG,-0.189
11,CTAAAGTA,0.208
12,AAGCGGTA,0.057
13,GACGTGAA,0.0747
14,GGTCAGTA,0.125
15,CCCTCGAA,-0.133
16,AACCCTCG,-0.166
17,AAATACTC,0.205
18,ACCCGCAA,-0.0817
19,CACGCTCG,-0.126
20,ACACCCCA,-0.112
21,AGGAAGGA,-0.123
22,CTTAAAAC,0.0491
23,AATACCAT,0.292
24,AATCCGGC,0.0531
25,CGCAATAG,0.121

row,Sequence,binding signal [E-score]
1,TCATTGGA,-0.125
2,ATCATATC,0.139
3,AACCAAAC,-0.132
4,AATACCCA,0.199
5,ACCCCGGG,-0.28
6,GTTAGGAA,0.056
7,GAAAGGCC,-0.322
8,CACACACC,0.000506
9,CACCATCA,-0.0781
10,ATTCGCCA,-0.031
11,GAATGGAA,-0.13
12,CTAACCGC,-0.0984
13,GGATTGAC,-0.054
14,TCGTGCAA,-0.08
15,AGATATAA,0.282
16,CTGGCCGC,-0.238
17,ATAGGTGC,0.0718
18,CGGAAATA,0.151
19,CATTAGGC,-0.163
20,AGGCGCAT,-0.286
21,CGATCGTC,-0.0949
22,ATTTACGG,0.216
23,AAAGCGCA,-0.00813
24,AGGATAAA,-0.0584
25,AAAGCTGA,-0.147

row,Sequence,binding signal [E-score]
1,CTAGATCA,0.199
2,TGGCGCCA,-0.435
3,CACTGCTC,-0.167
4,GGGATAAA,0.0651
5,GGGACGCA,-0.299
6,AAAACTTG,-0.0585
7,AAAAAATG,-0.032
8,CCAAATAC,0.137
9,CAGGCACA,-0.112
10,ACGGGCAT,-0.0946
11,CGCTTATA,0.194
12,GGGTGGCA,-0.252
13,CCAAAGCG,-0.105
14,GCTCTATA,0.0788
15,ACCGTCTA,-0.0436
16,ACGCAAGC,0.0464
17,ACCAAATA,0.219
18,ATTAAGAG,0.0634
19,AAGCAAAG,-0.131
20,AGACGTTG,-0.222
21,GGGTCCCA,-0.368
22,ATCTCGTA,0.151
